Reference: the RNAGym collection of RNA variant scans (doi:10.7554/elife.90254)
The source gives no read counts; variants with many changes may rest on few reads.

B1: LINE1-full (parent)
chain: UACGUAGGUGGUUUUCCCCUGAUAGUGCUAAGGGGGCCUGGAAGUUUGGACUGGGCAGAGCUCAACACAGCGUGGCAAAGUGGCUGUGGCUAGACUGCCUCUCUGGAUUCCUCGUCACUCAGCAGGGCAUCUCUGAGAGAAAUGCC

Variants of: B1
Test: self-cleavage, relative activity (ratio to wild type); higher = more cleavage; in vitro, sequencing; the parent is a self-cleaving ribozyme

Variant	self-cleavage
A22G A92G U130C	0.57
U23A C76U U119C	0.95
U20C U62C U104A	0.15
A22U A31G U96C G127A	0.2
A22U U47A U104A U115A A121G A140G	0.53
A22G U47A G97A	0.41
A22G A50G A77G C90G A142G	0.09
U20G A67G U130C A138G	0
A22U G27A A64G G82U A94G A129G	0.05
U20G A42G U96C A141G	0.1
A22U A69G A117U	0.65
A22G U46G U81C	0.77
A22G A43C C71A A79G U115C	0.17
A22G U39C U46A G82A	1.55
A22G G41A U87A	0.05
A22G A30G U39C U134C U143C	0
A22G A69G U100A	0.13
A22C A67G A140G	1.69
U20C U73G A78G A107G A141G	0.92
A22G A42G G125U	1.09
A22U U52A U108C U115A	1.98
A22G U47C U115A U134C	1.49
U20C U81A U85A U104G	0.2
A22U A42G A43G C71U U115C	1.18

Variant	self-cleavage
A22G U39C U46C G126A	1.07
A22G U109C A117U A140U	1.1
A22G C61U A64G A107G	0
U20C U115C C131G A141G	1.15
G21A A77U U143C	1.17
A22G U47C G105A	1.02
A22G U39A G49A A50G U87A	0.19
A22G U87C A129G U132C	0
U23A U102A A141G	1.39
A22G U62C C123U	0.06
G21A A31G G70U A142G	0.04
U23A U62C G80A	0.11
G21U G32A U45G A94G A107G	0.29
A22G A67U G89A U104C	0.12
A22G U23A A59U U115A	0.71
A22G U39G A59U A79G U134C	1.84
A22G A24G C103U U115G	1.17
A22G U115C A140G	0
A22G U47C A64C C101U	0.55
U20C U73A U91C U132A U134C	0.43
A22G A69C A136U	0.33
A22G A121G U132A	1.61
A22G U112C U143C	1.63
A22C U62C A140G	0

Variant	self-cleavage
U23A U104C A136G	0
U23A A77U U130C A142G	0.77
A22U U23C U62C A77U U134A A142G	0
A22G G48A A50G	0.77
A22U A31G U46A U47A U96A A124G	0.1
A22U A64U G105A	0.43
G21U U73A G75U A121U	1.84
A22G U39C A107G U134C	1.23
A22U G35A A121U	0.67
A22G A92G U100C A136G	0.46
A22G A77C C113U	1.03
A22G U62A A117G U130C	0.47
A22G A65G A67U U100C	0
A22G A43U U115C	0.66
A22G U23A U115C A141G	1.9
U20G U112C A142C	0.44
G21U A64G A78G A79G A141G	0
A22G A42G U73A U104C U132C	2.14
U23A U46A A50U	0.9
A22G A24G A50U	1.97
U23A A67U A94G U130A	0.16
A22U A42G A77U A141U	1.06
A22U A24G A78G	0.72
A22G U26A U102C	1.53

Variant	self-cleavage
A22G U26C A64G	0
U23A A64G U85A U115C	0.12
A22G A107G U143A	0.77
U20C U52C A140G	1.53
A22G A31U A78U A79G U85C	0.37
A22U A59G U73C A142G	0.28
A22U A77G U132A	1.59
A22G U26C U46C U130A A136U	1.53
A22G A43G U73C U81G G126C U143C	1.15
A22G G34A U109C U130C	1.35
A22G C71U U100C A142C	1.37
A22G U62A C123U U143A	0.05
A22G G41A A67G U73A U112C U134C	0.24
A22U A43U U45C A69U	0.15
U20C U52A A124G	0.8
A22G U39C G41A A79G	0.46
A22G U39C A43G G72A A77G A117U A138G A141G	0.71
A22U A57G A117G	0.46
A22U A42G U115C G122A	1.7
U20C U52C U115A	0.3
A22U A78G U87A A124G	0
A22U U62C A136G A141G	0
U23A C28A U87A U102C	0.07
A22G A77U U85A U96C C110A U115C	0.04

Variant	self-cleavage
A22G U46C U112C	2.04
A22G U132A A142G	1.41
U20C U62C A142G	0.09
A22G U45C A50U G127A A138C A141G	1.84
A22G U130A A140G	2.4
A22G A50G A141G	0.77
A22G A24U C90A A121U U132C A142G	0.17
A22G A24G G144U	0.71
U23A U26A A64G A141G	0.15
A22G A59G U104C A107G	0
U20C U102C U115C G126A	2.92
G21A A64C A65G A124G A136G	0
A22G A77G U119C	1.95
A22G G35U A69G	0.29
U20C U73C U134C	2.63
U20G U26C C37A U62A A64U U112A C128U	0.06
A22U G135A A136C	1.49
A22U A57G U109A	0.27
A22G A42G A69U U143A	0.16
A22G C51U G54U U73A U132G	0.83
A22U U45C U52A U81A	2.14
A22U U29G U100C	1.73
A22G U39C U46A G49A C51U A79G	1.38
A22G C68U C76U A79G U81A U100C A107G	1.7

Variant	self-cleavage
A22G A50U U108C	2.4
A22G A43G A94U U100A	0.55
G21A U96C U134A	0.26
G21A U23C G34A A57U A79U G82A U134C	0.13
U23A G82C A138U	2
U20C U62A U119C	0.13
A22U G49A A50G A79G	0.52
G21A C37U U39C U45C U62A U100C	0.06
G21A A22G A124U	1.19
A22G U29C U91A	0.99
A22G G36A U81C	1.19
A22U A64G A67U U100A U143C	0.08
U20C U47C C146A	0.29
A22G G35C G54U	0.69
G21U A64G A67G	0
A22G U47C A78G	0.63
A22C U112C A140G	1.57
U20C U73C C90A	0.12
U23A A43G U45G	1.37
U20G A67G G114A A141G	0.41
A22G G89A U96A A121U	0.04
U20C U81G U102C U115A	0.63
U20C U62C U91A C128U	0.08
A22G U102C U108C	0.44

Variant	self-cleavage
A22G U45C G54A G122A C131U	0.48
U23A A31G A94G	0.5
A22G U26C C68U A136G	0.55
A22U A43G U62C A67G	0
A22U U29A U39C A57U A79G U81A U102C	0.09
A22C U39C U47C A92U	0.71
G21A U112C C113U	0.39
A22U A50U U87C U134C A138U	0.53
G21C A117U A129U	1.3
U20G U73A U81C C145G	0.68
A22G A64G A142G	0.56
A22G A31U G35U A78U U87A A124G U130C	0.16
A22G U46A U62C U143G	0.07
A22G U119C C128A	0.65
A22G U46C U96C	0.48
A22G G32A C37U	1.25
A22U A140G A141G	1.87
U23A U45C U130C A136U	1
A22G G32C U115C	1.15
A22G U39C A43G A141G	1.42
A22G A64G G114U	0.34
A22G U47C U52C	0.35
A22G A57G A129G	2.3
